These results are taken from article PMC12040169 (PLOS Biology, 2025).

Some of the results follow.

The test system of the assay is T1, C. trachomatis L2/434/Bu expressing GFP (CTL2-GFP).
T1 construct: L2/434/Bu GFP intracellular growth in HeLa cells
More on the design: species or system HeLa; C. trachomatis total inclusion area by high-content imaging, normalised to DMSO. To be noted: total inclusion area; 28.5 h, 10 µM; inhibitor. The method, boiled down:
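After bulk GFP and resorufin fluorescence reads, cells were fixed, stained with Hoechst and imaged by high-content microscopy. Inclusion area and number (GFP) stood in for chlamydial growth, nuclei count (Hoechst) for host cell viability. MICs were derived as for the bulk readout.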
As for `O=C1NC2(CCc3ccccc31)CCN(C(=O)c1cccnc1)C2` (stereo not drawn) [CBK283335], the “% of control remaining” value was found to be 117.019. Next, `O=C(NCCn1c(-c2ccncc2)nc2ccccc21)c1ccc(F)c(F)c1` [CBK288577]: 100.011. Next, `CCC1CCCCN1S(=O)(=O)c1ccc(-n2ncc(Cl)c(Cl)c2=O)cc1` (stereo not drawn) [CBK305038]: 0; `Cc1cc(C(=O)N2CCC(c3nc(C)n4c(C)csc34)CC2)on1` [CBK285247]: 74.5896.

In the case of `O=C(CCc1ccc(F)cc1)N1CCC(c2cccc(Cc3ccccc3)n2)CC1` [CBK286511], the “% of control remaining” value came to 101.064. For the compound `CC(C)(C)OC(=O)N1CCN(S(=O)(=O)c2ccc(Cl)c([N+](=O)[O-])c2)CC1` [CBK003165], the “% of control remaining” value was 63.3322. To `COc1cc(NC(=O)CN2CCc3c(c(CO)nn3C)C2)cc(OC)c1` [CBK306841] belongs 47.4829. Take `OC(CNc1cccc2ccccc12)Cn1c2ccc(Br)cc2c2cc(Br)ccc21` (stereo not drawn) [CBK261420]: the “% of control remaining” value came to 70.2787.

Consider `CN(C)CCNC(=O)c1cc(-c2ccc(Cl)cc2)on1` [CBK116711T], for which the “% of control remaining” value was 99.4481. To `CCOCCCNC(=O)/C(=C/c1cccnc1)NC(=O)c1ccccc1` [CBK126866] belongs 87.4506. To `O=C1NCCNC(=O)C2(C/C=C/COc3ccccc31)CCN(C(=O)CCC1CCCC1)CC2` [CBK291995] belongs 91.1396; to `Nc1nnnn1/N=C/c1cc(Cl)cc(Cl)c1OCc1ccc(Cl)cc1Cl` [CBK263853], 94.0556.

Consider `O=C(CSc1nc2sc3c(c2c(=O)n1Cc1ccco1)CCC3)NCc1ccco1` [CBK268499], for which the “% of control remaining” value was 108.016. To `CSc1cccc(NC(=O)Nc2ccc3c(c2)OCCO3)c1` [CBK300527] belongs 108.527; to `O=c1[nH]nc2c3c4c(sc3ncn12)CCCC4` [CBK284235], 48.8625; to `NC(=O)CC1C(=O)N(c2ccc(F)cc2)C(=O)N1NC(=O)CCc1ccccc1` (stereo not drawn) [CBK269033], 54.3742. For the compound `COc1ccc2[nH]cc(CCNC(=O)c3ccc4[nH]c(=O)[nH]c4c3)c2c1` [CBK122721], the “% of control remaining” value was found to be 111.612. To `COC(=O)C1=C(C)N=c2s/c(=C/c3ccc(OC)c(OC(C)=O)c3)c(=O)n2C1c1cccs1` (stereo not drawn) [CBK077753] belongs 105.024; to `Cc1ccc(CNC(=O)Cn2nnc(-c3ccc(CN4CC(C)OC(C)C4)cc3)n2)cc1` (stereo not drawn) [CBK144554C], 32.0518. Next, `O=C(O)CCN1CCN(c2ccc(F)cc2)CC1` [CBK287262]: 65.6017; `O=C(CSc1nnc(-c2ccccc2)n1-c1ccc(Cl)cc1)NCc1ccco1` [CBK266637]: 120.228; `O=C(CCCn1ccnc1)N1CCc2[nH]c3ccccc3c2C1` [CBK281872]: 108.838. On to `COc1cc([N+](=O)[O-])ccc1NC(=O)CCN1C(=O)C2C3CCC(C3)C2C1=O` (stereo not drawn) [CBK265141], for which the “% of control remaining” value is 75.3067. For `Cc1nc(Nc2ccc(Cl)cc2)nc(Oc2ccccc2)n1` [CBK003915], the “% of control remaining” value came out at 87.7396. `C[C@H](NC(=O)N1CCN(C(=O)CCCc2c[nH]c3ccccc23)CC1)C(=O)O` [CBK286749]: the “% of control remaining” value is reported as 105.954.

For the compound `CC1CCN(C(=O)CN2C(=O)N3CCN=C3c3ccccc32)CC1` [CBK283946], the “% of control remaining” value is 87.6299.

`CC(=O)Nc1ccc(-c2nnc(SCc3c(Cl)cccc3[N+](=O)[O-])n2C)cc1` [CBK265823]: the “% of control remaining” value was 95.2356.

On to `COCCNC(=O)c1cc(-c2ccccc2)cnc1N(C)S(C)(=O)=O` [CBK076484], for which the “% of control remaining” value was found to be 81.9011. Next, `COC(=O)CC1C(=O)NCCN1C(=S)NC(=O)c1ccc(-c2ccccc2)cc1` (stereo not drawn) [CBK268711]: 125.206; `CN1CCC[C@H]1C(=O)N1CCN(c2ncccn2)CC1` [CBK144528]: 84.7497; `CN(CC(=O)Nc1ccccc1N1CCCC1)Cc1cnn(Cc2ccccc2)c1` [CBK295187]: 101.668. To `Nc1nonc1C(=O)NCCNc1ccc([N+](=O)[O-])cc1` [CBK262577] belongs 72.5857. To `COc1ccc(C(C)C)cc1-c1cnc2[nH]c(=O)n([C@@H](CO)C(C)C)c2n1` [CBK064495] belongs 90.6308. In the case of `CC(NC(=O)Cc1ccccc1F)c1nc2cccnc2n1C(C)C` (stereo not drawn) [CBK283829], the “% of control remaining” value came out at 80.6022. To `Cc1nc2c(c(=O)[nH]1)CN(C(=O)Cc1c(F)cccc1Cl)CC2` [CBK283589] belongs 77.5924; to `CC1(Cn2ccnc2-c2ccccc2C(=O)O)CCCO1` (stereo not drawn) [CBK307439], 83.7235. To `CN(CC(=O)NCc1ccccc1OC1CCNC1)C(=O)c1ccccc1` (stereo not drawn) [CBK028298T] belongs 104.406. As for `COC(=O)c1cscc1NC(=O)c1cnc(-c2cccc(C)c2)c(-c2ccc(C(C)=O)s2)c1` [CBK036760], the “% of control remaining” value came to 98.1747. To `NS(=O)(=O)c1ccc(CNC(=O)C2(c3ccccc3)CCCC2)cc1` [CBK161523] belongs 99.0726. To `CC(=O)NCC(=O)N1CCC[C@@H]2[C@H]1CCCCc1ccccc1OCC(=O)N2C` [CBK292011] belongs 85.4481; to `CN(Cc1ccc(-c2ccc(S(C)(=O)=O)cc2)nc1)C1CCN(C(=O)CC2CCCCC2)CC1` [CBK164105T], 92.2051; to `OCc1ccccc1-c1cn2ccnc2c(N[C@@H]2CCN(Cc3ccccc3)C2)n1` [CBK037969], 118.383. As for `Cc1ccc(-n2c(SCC(=O)N3CCOCC3)nnc2-c2ccccc2O)c(C)c1` [CBK269112], the “% of control remaining” value was 100.554.

Turning to `NS(=O)(=O)c1ccc(Nc2nc(-c3cccs3)cs2)cc1` [CBK262502], the “% of control remaining” value was 82.4114. Next, `CC(=O)N1CCc2cc(C(O)CN3CCCC4CCCCC43)ccc21` (stereo not drawn) [CBK282924]: 114.949; `CC(=O)Nc1cccc(NC(=O)c2cc(-c3ccncc3)nc3ccc(Cl)cc23)c1` [CBK267773]: 99.3835; `Cc1ccccc1-c1ccccc1CC1(C(N)=O)CCN(C(=O)CC2CCCCC2)CC1` [CBK285723]: 117.483. To `COc1ccc(-c2nc(NC(=O)c3ccc(S(N)(=O)=O)cc3)cnc2-c2cccc(C)c2)cc1` [CBK037559] belongs 130.218.

With `CN(C)CCCNC(=O)c1cccc(Nc2cncc(-c3ccc(O)cc3)n2)c1` [CBK122669], the “% of control remaining” value is reported as 117.362. To `O=C(Cn1ccc2ccnc(-c3cccs3)c21)NCc1ccncc1` [CBK284734] belongs 100.275. To `CC1CCCC(C)N1CC(O)COc1ccc(/N=C/c2ccccc2)cc1` (stereo not drawn) [CBK261764] belongs 88.8489; to `CN1CCN(c2cccc(-c3cc4ccccc4s3)n2)CC1` [CBK037019], 95.1222. To `COc1ccc(CCN(C)C(=O)CCCc2cc3ccccc3[nH]2)cc1OC` [CBK051152] belongs 84.5187; to `COc1ccccc1-c1cc2nc(C)cc(N3CCOCC3)n2n1` [CBK304532], 26.5683. For `Fc1ccccc1CN1CCC(Oc2nccnc2OCC2COc3ccccc3O2)CC1` (stereo not drawn) [CBK082979T], the “% of control remaining” value turned out to be 95.0239. Next, `C=C[C@H]1C[N@@]2CC[C@H]1C[C@@H]2CNS(=O)(=O)c1ccc(NC(C)=O)cc1` [CBK288749]: 99.6842; `C=CCNC(=O)CSc1nc2sc(C)c(C)c2c(=O)[nH]1` [CBK287350]: 80.3213.

Consider `Ic1cnn(Cc2nc(-c3ccccc3)no2)c1` [CBK269901], for which the “% of control remaining” value stood at 107.396.

`CN(C)CCCN1C(=O)C(O)=C(C(=O)c2ccncc2)C1c1ccccc1` (stereo not drawn) [CBK287779]: the “% of control remaining” value came to 77.0812.

On to `Cc1nc(Nc2ccc(Cl)cc2)nc(N2CCN(C)CC2)n1` [CBK023855], for which the “% of control remaining” value amounted to 97.3718.

Regarding `O=C(Nc1ccc2c(c1)OCCO2)N1CCN(c2ccccc2)CC1` [CBK155187], the “% of control remaining” value is listed as 108.368. Next, `CCOC(=O)c1c(NC(=O)Cn2cnc([N+](=O)[O-])n2)sc2c1CCC(C)C2` (stereo not drawn) [CBK263058]: 78.7673; `Clc1ccc(Nc2ncnc3c2cnn3-c2ccc(Cl)cc2)cc1` [CBK287356]: 89.912; `Cc1cnc2c(N3CCCC3)nc(-c3cccnc3)cn12` [CBK092277]: 100.829.

For `c1cnc(N2CCCC2)c(Sc2nc[nH]n2)n1` [CBK093737], the “% of control remaining” value is on record as 104.007.

As to `O=C1NC(=O)c2c(NC(=O)C3CCCCC3)cccc21` [CBK019837], the “% of control remaining” value came out at 60.9514. Next, `Cc1oc(-c2ccc(Cl)cc2)cc1C(=O)CC#N` [CBK047603]: 137.761; `Cc1[nH]c(=O)[nH]c(=O)c1CC(=O)N1CCCCC1CN1CCCCC1` (stereo not drawn) [CBK286344]: 98.3383.

`CCC(C)(C)c1ccc(S(=O)(=O)N2CCCN(Cc3ccc4cccc(O)c4n3)CC2)cc1` [CBK063051]: the “% of control remaining” value is given as 87.8795.

With `Cc1ccc(C(=O)COC(=O)c2cccc(C)c2O)cc1[N+](=O)[O-]` [CBK264081], the “% of control remaining” value is listed as 108.222. Next, `CCOc1ccc(-c2nc(N)ncc2Oc2ccc(OC)cc2)c(O)c1` [CBK288105]: 119.661; `O=C(Nc1nc2c(Br)cccc2s1)c1nc2ccccc2s1` [CBK287619]: 87.3204; `CCC(O)Cn1nc(CCSC)nc1-c1cn(C)c(=O)[nH]c1=O` (stereo not drawn) [CBK306588]: 75.2546. `Cc1ccc(CN(C2CCN(C)CC2)S(=O)(=O)c2ccc(F)cc2F)cc1` [CBK160448T]: the “% of control remaining” value came to 41.5723. As to `OCCN1CCN(c2nccnc2-c2ccncc2)CC1` [CBK038084], the “% of control remaining” value turned out to be 84.0066. With `Cn1c(=O)n(C)c2cc(S(=O)(=O)NCC3(N)CCOCC3)ccc21` [CBK306266], the “% of control remaining” value is listed as 82.5113. To `Cn1cc(-c2ncc(OCCc3cccs3)nc2N)cn1` [CBK145167] belongs 137.162.

With `C/N=C1/SC(CC(=O)Nc2cccc(C(=O)O)c2)C(=O)N1C` (stereo not drawn) [CBK265581], the “% of control remaining” value is 107.136.
